Laboratory results published in the supplement of paper PMC8728848.
Some of the results follow.

What was measured:
Experiment in all cases: glycan array binding signal (z-score within array); higher = stronger binding
Settings in all cases: glycan notation: IUPAC condensed, linker removed
Fuc(a1-2)Gal = biological target: Fuc(a1-2)Gal
Outline: (§1)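 Glycan array binding is given as a within-array Z-score, which can be read as non-binding when negative. The arrays, 3228 of them, came from the Consortium for Functional Glycomics database and were retained only where the protein sequence was available. Z-scores were averaged across arrays of the same protein sequence at different concentrations or buffers and across linkers.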

Fuc(a1-2)Gal(b1-3)GalNAc = biological target: Fuc(a1-2)Gal(b1-3)GalNAc
Outline: as §1

[1] = biological target: Fuc(a1-2)Gal(b1-3)GalNAc(b1-3)Gal
Outline: as §1

[2] = biological target: Fuc(a1-2)Gal(b1-3)GalNAc(b1-3)Gal(a1-4)Gal(b1-4)Glc
Outline: as §1

[3] = biological target: Fuc(a1-2)Gal(b1-3)GalNAc(b1-3)Gal(b1-4)Glc
Outline: as §1

[4] = biological target: Fuc(a1-2)Gal(b1-3)GalNAc(b1-4)[Neu5Ac(a2-3)]Gal(b1-4)Glc
Outline: as §1

[5] = biological target: Fuc(a1-2)Gal(b1-3)[Fuc(a1-4)]GlcNAc
Outline: as §1

Fuc(a1-2)Gal(b1-4)Glc = biological target: Fuc(a1-2)Gal(b1-4)Glc
Outline: as §1

Fuc(a1-2)Gal(b1-4)Glc6S = biological target: Fuc(a1-2)Gal(b1-4)Glc6S
Outline: as §1

Fuc(a1-2)Gal(b1-4)GlcNAc = biological target: Fuc(a1-2)Gal(b1-4)GlcNAc
Outline: as §1

[6] = biological target: Fuc(a1-2)Gal(b1-4)GlcNAc(b1-3)Gal(b1-4)GlcNAc
Outline: as §1

[7] = biological target: Fuc(a1-2)Gal(b1-4)GlcNAc(b1-3)Gal(b1-4)GlcNAc(b1-3)Gal(b1-4)GlcNAc
Outline: as §1

[8] = biological target: Fuc(a1-2)Gal(b1-4)GlcNAc6S
Outline: as §1

[9] = biological target: Fuc(a1-2)Gal(b1-4)[Fuc(a1-3)]GalNAc(b1-3)Gal(b1-4)[Fuc(a1-3)]GlcNAc
Outline: as §1

[10] = biological target: Fuc(a1-2)Gal(b1-4)[Fuc(a1-3)]GalNAc(b1-3)Gal(b1-4)[Fuc(a1-3)]GlcNAc(b1-3)Gal(b1-4)[Fuc(a1-3)]GalNAc
Outline: as §1

[11] = biological target: Fuc(a1-2)Gal(b1-4)[Fuc(a1-3)]GlcNAc
Outline: as §1

Fuc(a1-2)Gal6S(b1-4)Glc = biological target: Fuc(a1-2)Gal6S(b1-4)Glc
Outline: as §1

[12] = biological target: Fuc(a1-2)Gal6S(b1-4)Glc6S
Outline: as §1

[13] = biological target: Fuc(a1-2)Gal6S(b1-4)GlcNAc
Outline: as §1

Fuc(a1-2)GlcNAc = biological target: Fuc(a1-2)GlcNAc
Outline: as §1

Fuc(a1-2)[Gal(a1-3)]Gal = biological target: Fuc(a1-2)[Gal(a1-3)]Gal
Outline: as §1

[14] = biological target: Fuc(a1-2)[Gal(a1-3)]Gal(b1-3)GlcNAc
Outline: as §1

[15] = biological target: Fuc(a1-2)[Gal(a1-3)]Gal(b1-4)Glc
Outline: as §1

[16] = biological target: Fuc(a1-2)[Gal(a1-3)]Gal(b1-4)GlcNAc
Outline: as §1

[17] = biological target: Fuc(a1-2)[Gal(a1-3)]Gal(b1-4)[Fuc(a1-3)]GlcNAc
Outline: as §1

[18] = biological target: Fuc(a1-2)[Gal(a1-4)]Gal(b1-4)GalNAc
Outline: as §1

[19] = biological target: Fuc(a1-2)[GalNAc(a1-3)]Gal
Outline: as §1

[20] = biological target: Fuc(a1-2)[GalNAc(a1-3)]Gal(b1-3)GlcNAc
Outline: as §1

[21] = biological target: Fuc(a1-2)[GalNAc(a1-3)]Gal(b1-4)Glc
Outline: as §1

[22] = biological target: Fuc(a1-2)[GalNAc(a1-3)]Gal(b1-4)GlcNAc
Outline: as §1

[23] = biological target: Fuc(a1-2)[GalNAc(a1-3)]Gal(b1-4)[Fuc(a1-3)]GlcNAc
Outline: as §1

[24] = biological target: Fuc(a1-2)[GalNAc(a1-4)]Gal(b1-4)GlcNAc
Outline: as §1

Fuc(a1-3)GlcNAc = biological target: Fuc(a1-3)GlcNAc
Outline: as §1

[25] = biological target: Fuc(a1-3)[Gal(b1-4)]Glc6S
Outline: as §1

[26] = biological target: Fuc(a1-3)[Gal(b1-4)]GlcNAc
Outline: as §1

[27] = biological target: Fuc(a1-3)[Gal(b1-4)]GlcNAc(b1-3)Gal(b1-3)[Fuc(a1-4)]GlcNAc
Outline: as §1

[28] = biological target: Fuc(a1-3)[Gal(b1-4)]GlcNAc(b1-4)Gal(b1-4)[Fuc(a1-3)]GlcNAc
Outline: as §1

[29] = biological target: Fuc(a1-3)[Gal(b1-4)]GlcNAc(b1-4)Gal(b1-4)[Fuc(a1-3)]GlcNAc(b1-4)Gal(b1-4)[Fuc(a1-3)]GlcNAc
Outline: as §1

[30] = biological target: Fuc(a1-3)[Gal(b1-4)]GlcNAc6S
Outline: as §1

[31] = biological target: Fuc(a1-3)[Gal3S(b1-4)]Glc
Outline: as §1

[32] = biological target: Fuc(a1-3)[Gal3S(b1-4)]Glc6S
Outline: as §1

[33] = biological target: Fuc(a1-3)[Gal3S(b1-4)]GlcNAc
Outline: as §1

[34] = biological target: Fuc(a1-3)[Gal3S(b1-4)]GlcNAc6S
Outline: as §1

[35] = biological target: Fuc(a1-3)[GalNAc(b1-4)]Gal(b1-4)GlcNAc
Outline: as §1

Fuc(a1-4)GlcNAc = biological target: Fuc(a1-4)GlcNAc
Outline: as §1

B1: LEA (Lycopersicon esculentum) (protein)
chain: NEVFDVPMNETIGVESINASVGGYPRCGAQGDGGNCPSGMCCSVWGWCGKTYGYCAPQNCQKQCPAPYPEGRCGWQADGKSCPNGKCCSYGGWCGTTSDYCARQNCQKQCILPSPPPPPPPPPGFPRPECGLQKNGERCTKPGECCSIWGLCGATYKYCDPQHCQKQCSAPFPPGRCGWQADGRPCPTGQCCSFSGWCGTTSAHCTYPQCVSQCNDPRFPSSLNNRIQSFML
Fuc(a1-2)Gal
  glycan array binding signal (z-score): -0.538
Fuc(a1-2)Gal(b1-3)GalNAc
  glycan array binding signal (z-score): -0.556
[1]
  glycan array binding signal (z-score): -0.547
[2]
  glycan array binding signal (z-score): -0.539
[3]
  glycan array binding signal (z-score): -0.549
[4]
  glycan array binding signal (z-score): -0.531
[5]
  glycan array binding signal (z-score): -0.562
Fuc(a1-2)Gal(b1-4)Glc
  glycan array binding signal (z-score): -0.541
Fuc(a1-2)Gal(b1-4)Glc6S
  glycan array binding signal (z-score): -0.54
Fuc(a1-2)Gal(b1-4)GlcNAc
  glycan array binding signal (z-score): 1.11
[6]
  glycan array binding signal (z-score): 1.72
[7]
  glycan array binding signal (z-score): 2.27
[8]
  glycan array binding signal (z-score): 1.4
[9]
  glycan array binding signal (z-score): -0.557
[10]
  glycan array binding signal (z-score): -0.543
[11]
  glycan array binding signal (z-score): -0.555
Fuc(a1-2)Gal6S(b1-4)Glc
  glycan array binding signal (z-score): -0.548
[12]
  glycan array binding signal (z-score): -0.512
[13]
  glycan array binding signal (z-score): -0.55
Fuc(a1-2)GlcNAc
  glycan array binding signal (z-score): -0.537
Fuc(a1-2)[Gal(a1-3)]Gal
  glycan array binding signal (z-score): -0.548
[14]
  glycan array binding signal (z-score): -0.552
[15]
  glycan array binding signal (z-score): -0.539
[16]
  glycan array binding signal (z-score): 2.51
[17]
  glycan array binding signal (z-score): -0.548
[18]
  glycan array binding signal (z-score): 2.53
[19]
  glycan array binding signal (z-score): -0.561
[20]
  glycan array binding signal (z-score): -0.547
[21]
  glycan array binding signal (z-score): -0.564
[22]
  glycan array binding signal (z-score): 2.5
[23]
  glycan array binding signal (z-score): -0.546
[24]
  glycan array binding signal (z-score): 2.62
Fuc(a1-3)GlcNAc
  glycan array binding signal (z-score): -0.545
[25]
  glycan array binding signal (z-score): -0.535
[26]
  glycan array binding signal (z-score): -0.562
[27]
  glycan array binding signal (z-score): -0.561
[28]
  glycan array binding signal (z-score): -0.522
[29]
  glycan array binding signal (z-score): -0.541
[30]
  glycan array binding signal (z-score): -0.39
[31]
  glycan array binding signal (z-score): -0.554
[32]
  glycan array binding signal (z-score): -0.541
[33]
  glycan array binding signal (z-score): -0.505
[34]
  glycan array binding signal (z-score): 0.546
[35]
  glycan array binding signal (z-score): -0.537
Fuc(a1-4)GlcNAc
  glycan array binding signal (z-score): -0.552
